Reference: PubChem BioAssay AID1508623 (National Center for Advancing Translational Sciences (NCATS), 2021)
The campaign covered roughly 48,000 compounds. About 450 (0.94%) were called active. Inconclusive means that the source gave no clear call. Such entries were picked first, then a sample of the others. Calls follow the shape of the dose curve; as a rule, active = well fitted inhibition curve with a large enough effect; inconclusive = small, poorly fitted or top-dose-only effect; inactive = no such curve, though single readings can be large or run the other way. Potencies of inconclusive entries are doubtful fits and often do not repeat.

Assay: Primary qHTS for Identification of Small Molecule Inhibitors of Huntingtin Promoter Activity; also: nearly all actives have a fitted effect of over 50% in size
Conditions: HEK293 HTT promoter firefly luciferase reporter (activity 0% = vehicle and -100% = no light), 24 h; series mostly up to 57.5 µM
How it was run: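 HEK293 cells carrying firefly luciferase reporters were seeded at 2,500 per well in Opti-MEM and cultured for 24 h. They were then treated with compounds at up to 57.5 uM final for 24 h at 37 degrees C before Dual-Glo luminescence readout.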
Potency is read from the fitted curve at half-maximal effect; tags tell the direction and shape of the fitted curve.

Row | SMILES | Potency
1 | COC(=O)c1ccc(NC(=O)c2c(NCc3ccc(OC)c(OC)c3)sc3c2CCCC3)cc1 | inconclusive: 31.6 µM [inhibitor, partial curve, poor fit]
2 | Cc1oc2ncnc(N3CCCCC3)c2c1C(=O)Nc1cccc(F)c1 | inactive
3 | Cc1ccccc1CN1C(=O)C(O)(CC(=O)c2cccc(Br)c2)c2ccccc21 (stereo unspecified) | inconclusive: 28.2 µM [inhibitor, partial curve]
4 | COc1ccc(Nc2cc(C(=O)NCCCN(C)C3CCCCC3)c3ccccc3n2)cc1 | inconclusive: 35.5 µM [inhibitor, single point]
5 | COCCCn1c(=N)c(C(=O)NC2CCCC2)cc2c(=O)n3cc(C)ccc3nc21 | inactive
6 | Cc1cccc(C(=O)Nc2nnc(S(=O)(=O)N3c4ccccc4CC3C)s2)c1 (stereo unspecified) | inconclusive: 28.2 µM [inhibitor, single point]
7 | CCn1c(=O)cc(OCC(=O)Nc2ccccc2Cl)c2ccccc21 | inactive
8 | O=C(Cc1ccc(F)cc1)NCCc1csc(-c2ccc(C(F)(F)F)cc2)n1 | inconclusive: 39.8 µM [inhibitor, single point]
9 | CCOC(=O)c1cnc(NCc2ccc(Cl)cc2)c2ccccc12 | inconclusive: 15.8 µM [inhibitor, partial curve, poor fit]
10 | Cn1c(CN2CCCCC2)nc2cc(NC(=O)c3ccc(Cl)cc3)ccc21 | inconclusive: 15.8 µM [inhibitor, partial curve, poor fit]
11 | Cc1cnc(Nc2ccc(N3CCN(C)CC3)cc2)nc1Nc1cccc(S(=O)(=O)NC(C)(C)C)c1 | inactive
12 | O=C(NC1CCCCC1)/C(=C/c1ccc(Cl)cc1)NC(=O)c1ccccc1 | inactive
13 | Cc1ccc(NC(CNS(=O)(=O)c2ccc(Cl)cc2)c2ccccc2)cc1 (stereo unspecified) | inconclusive: 39.8 µM [inhibitor, single point]
14 | COc1cccc2nc(-c3cccs3)nc(NN3C(=O)C=C(C)C3=O)c12 | inconclusive: 3.43 µM [inhibitor, partial curve]
15 | CCOC(=O)C1CCCN(S(=O)(=O)c2cc(-c3cc(C)no3)ccc2C)C1 (stereo unspecified) | inconclusive: 11.2 µM [inhibitor, partial curve, poor fit]
16 | CCC(=O)N1c2ccc(S(=O)(=O)N3CCN(c4ccccc4Cl)CC3)cc2CC1C (stereo unspecified) | inconclusive: 35.5 µM [inhibitor, partial curve]
17 | Cc1cccc(C)c1Nc1c(-c2ccccc2O)nc2ncccn12 | inconclusive: 17.8 µM [inhibitor, single point]
18 | CCCCCCCCCCCCCCCCCC(=O)O | inactive
19 | Cc1ccc(S(=O)(=O)N2CCCc3cc(NC(=O)c4c(F)cccc4F)ccc32)cc1 | inconclusive: 39.8 µM [inhibitor, single point]
20 | Cc1nn(CC(=O)NCc2ccccc2Br)c(=O)c2cc3occc3n12 | inconclusive: 25.1 µM [inhibitor, single point]
21 | CCc1ccc(C2=C(C)C(N3CCC(C(=O)NCc4ccc(C)o4)CC3)=NS2(=O)=O)cc1 | inconclusive: 11.2 µM [inhibitor, partial curve]

Row | SMILES | Potency
22 | Cc1cccc(OCCCCn2c(C3CC(=O)N(c4ccc(C)cc4C)C3)nc3ccccc32)c1 (stereo unspecified) | inconclusive: 35.5 µM [inhibitor, single point]
23 | Cc1ccc(Cl)cc1-n1ncc2c(N3CCC(C(N)=O)CC3)ncnc21 | inactive
24 | Cc1ccccc1C(=O)Nc1ccc(C(=O)OCc2cc(=O)n3c4c(sc3n2)CCCC4)cc1 | inconclusive: 28.2 µM [inhibitor, single point]
25 | Cc1ccc(-n2c(=O)c3ccc(C(=O)NCc4ccccc4Cl)cc3n(CC(N)=O)c2=O)cc1 | inconclusive: 35.5 µM [inhibitor, single point]
26 | Cc1ccc(C(=O)Nc2ccc(F)cc2)cc1S(=O)(=O)N1CCOCC1 | inconclusive: 39.8 µM [inhibitor, single point]
27 | Cc1nc2c(C(=O)NCc3ccccc3)c[nH]n2c(=O)c1Cc1ccccc1Cl | inconclusive: 25.1 µM [inhibitor, single point]
28 | Cc1cccc(OCC(O)CNC(C)(C)C)c1C (stereo unspecified) | inactive
29 | Cc1cc(C)c(NC(=O)CSc2nc(=O)[nH]c3c2CCCC3)c(C)c1 | inconclusive: 31.6 µM [inhibitor, partial curve, poor fit]
30 | O=C(NCCc1csc2nc(-c3ccccc3F)nn12)c1ccco1 | inactive
31 | CN1C(C(=O)c2ccccc2)=C(OC(=O)c2ccc(Br)cc2)c2ccccc2S1(=O)=O | inconclusive: 31.6 µM [inhibitor, single point]
32 | COc1ccccc1NC(=O)c1c(NCc2ccc(OC)c(OC)c2OC)sc2c1CCCC2 | inconclusive: 39.8 µM [inhibitor, single point]
33 | COc1ccc(N2CCN(S(=O)(=O)CCNC(=O)C(c3ccccc3)c3ccccc3)CC2)cc1 | inconclusive: 39.8 µM [inhibitor, single point]
34 | CCOC(=O)c1ccc(Nc2nc3ccccc3nc2NS(=O)(=O)c2ccc(Cl)cc2)cc1 | inconclusive: 7.94 µM [inhibitor, single point]
35 | O=C1CSC2(C(=O)N(Cc3ccccc3F)c3ccccc32)N1c1ccc(F)cc1 (stereo unspecified) | inconclusive: 39.8 µM [inhibitor, partial curve, poor fit]
36 | COc1ccc(-n2ccnc2SCC(=O)Nc2ccc(F)cc2F)cc1 | inconclusive: 39.8 µM [inhibitor, single point]
37 | COc1ccc(CCC(=O)N2CCc3c([nH]c4ccccc34)C2c2ccc(F)cc2)cc1 (stereo unspecified) | inconclusive: 20 µM [inhibitor, partial curve, poor fit]
38 | CCC(=O)N1c2ccccc2CC1C(=O)NCc1ccc(OC(C)C)cc1 (stereo unspecified) | inconclusive: 35.5 µM [inhibitor, partial curve, poor fit]
39 | CCOC(=O)Nc1ccc(NCc2ccc(F)cc2)nc1N | inactive
40 | O=C(NCC1CCN(Cc2cccc(Cl)c2)CC1)Nc1cc(Cl)ccc1Cl | inconclusive: 31.6 µM [inhibitor, single point]
41 | CC(C)(C)OC(=O)N1CCC(c2c(C(=O)N3CCC(c4ccccc4)C3)cnn2-c2cccc(Cl)c2)CC1 (stereo unspecified) | inconclusive: 31.6 µM [inhibitor, single point]
42 | CCCCCS(=O)(=O)c1oc(-c2cccs2)nc1S(=O)(=O)c1ccc(C)cc1 | inactive

Row | SMILES | Potency
43 | CCCCN(CCCC)C(=O)c1cc2c(=O)n3cccc(C)c3nc2s1 | inactive
44 | Cc1cccc(OCC(=O)N(Cc2cccs2)c2ccc(Cl)cc2)c1C | inconclusive: 25.1 µM [inhibitor, partial curve, poor fit]
45 | CC(C)=CCC1C(=O)N(c2ccccc2)N(c2ccccc2)C1=O | inactive
46 | CSc1cccc(NC(=O)CN2C(=O)COc3ccc(Cl)cc32)c1 | inconclusive: 28.2 µM [inhibitor, partial curve, poor fit]
47 | CCOc1ccc(C(=O)N2CCC(c3nc4ccccc4o3)CC2)cc1 | inconclusive: 22.4 µM [inhibitor, single point]
48 | COc1ccc(NC(=O)COc2ccc(-c3nn(C)c(=O)c4ccccc34)cc2)cc1 | inconclusive: 39.8 µM [inhibitor, partial curve, poor fit]
49 | COc1ccccc1-c1nnc(SCC(=O)c2ccc(Cl)cc2)n1-c1ccccc1 | inconclusive: 31.6 µM [inhibitor, partial curve, poor fit]
50 | CC(NC(=O)c1ccc2c(c1)CCN2S(=O)(=O)c1ccc(Cl)cc1)c1ccccc1 (stereo unspecified) | inconclusive: 28.2 µM [inhibitor, partial curve, poor fit]
51 | CCn1ccc2cc(S(=O)(=O)N3CCCN(C(=O)Nc4cccc(Cl)c4)CC3)ccc21 | inconclusive: 20 µM [inhibitor, partial curve, poor fit]
52 | COc1ccc(N(C)C(=O)c2cn(C3CCCCC3)c(=O)c3c2c2ccccc2n3C)cc1 | inconclusive: 28.2 µM [inhibitor, single point]
53 | CCOC(=O)c1c(S(=O)(=O)N2CCCC(C(=O)Nc3cccc(Cl)c3)C2)c(C)n(C)c1C (stereo unspecified) | inconclusive: 35.5 µM [inhibitor, single point]
54 | COc1ccccc1NC(=O)C(=O)NCCc1csc(-c2cccc(F)c2)n1 | inconclusive: 35.5 µM [inhibitor, partial curve, poor fit]
55 | COc1ccc(-n2c(=O)c3c4c(sc3n(Cc3ccc(F)cc3)c2=O)CCCC4)c(OC)c1 | inconclusive: 35.5 µM [inhibitor, single point]
56 | CCOC(=O)c1cccc(NC(=O)CCn2c(-c3ccc(F)cc3)cc(C(=O)OCC)c2C)c1 | inconclusive: 11.2 µM [inhibitor, partial curve]
57 | Cc1ccccc1C1CC(=O)Nc2ccc3ccccc3c21 (stereo unspecified) | inconclusive: 12.6 µM [inhibitor, partial curve, poor fit]
58 | Cc1cccc(NC(=O)N2CC(=O)Nc3sc4c(c3C2c2ccccc2)CCCC4)c1C (stereo unspecified) | inconclusive: 35.5 µM [inhibitor, single point]
59 | Cc1ccc(Cl)cc1N1CCN(C(=O)c2ccc3c(c2)N(Cc2ccc(F)cc2)CCS3)CC1 | inconclusive: 25.1 µM [inhibitor, partial curve, poor fit]
60 | Cc1cc(=O)n(CC(=O)N2CCN(c3ccccc3F)CC2)c2c1c(C)nn2C | active: 20 µM
61 | CCc1ccccc1NC(=O)c1cnc(N2CCCCC2)c2ccccc12 | inconclusive: 6.31 µM [inhibitor, single point]
